Results as given in PubChem BioAssay AID624417 (National Center for Advancing Translational Sciences (NCATS), 2012).
The campaign covered roughly 410,000 compounds. About 6,400 (1.6%) were called active. The shares of active, inactive and inconclusive entries below differ from those in the screen. The call rests on the fitted dose curve; in most records, active means well fitted inhibition curve with a large enough effect; inconclusive means small, poorly fitted or top-dose-only effect; inactive means no such curve, though single readings can be large or run the other way. Potencies beside an inconclusive call are fits to weak or partial responses and may not hold up.

target: Glucagon-like peptide 1 receptor (Homo sapiens) (UniProt P43220); test: qHTS of GLP-1 Receptor Inverse Agonists (Inhibition Mode); conditions: HEK293 GLP-1R CRE-luciferase, luminescence, 24 h, GLP-1R form is constitutively active; activity change, negative = inhibition: at 38.3 µM (top of the series) unless noted; further: nearly all actives have a fitted effect of over 55% in size
Sequence of UniProt P43220 (P43220 whole entry, looked up): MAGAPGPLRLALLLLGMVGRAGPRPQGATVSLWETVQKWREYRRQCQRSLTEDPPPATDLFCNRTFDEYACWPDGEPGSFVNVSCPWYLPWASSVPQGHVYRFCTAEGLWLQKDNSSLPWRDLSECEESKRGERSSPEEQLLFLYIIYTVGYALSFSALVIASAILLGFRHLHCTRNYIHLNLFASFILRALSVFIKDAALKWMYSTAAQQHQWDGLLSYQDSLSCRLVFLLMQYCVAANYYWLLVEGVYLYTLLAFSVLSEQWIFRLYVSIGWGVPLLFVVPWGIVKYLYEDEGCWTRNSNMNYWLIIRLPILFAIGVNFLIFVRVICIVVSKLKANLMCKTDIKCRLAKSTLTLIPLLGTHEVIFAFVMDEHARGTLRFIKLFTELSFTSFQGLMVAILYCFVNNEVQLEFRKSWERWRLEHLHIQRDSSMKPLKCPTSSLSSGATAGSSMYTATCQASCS
Outline: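 HEK293 cells stably co-expressing a cAMP-responsive luciferase reporter and constitutively active GLP-1R were seeded, incubated 12 h, then exposed to compounds for 24 h at 37 C. Luminescence was read 12 min after detection reagent; inverse agonists lower signal.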
On the % scale 0 is the no-effect control and ±100 the full control effect; potency means the concentration at half of the fitted maximal effect; tags describe the fitted curve by direction and shape.

Potency, active:
CCOc1ccc(NS(=O)(=O)c2cccc(C(=O)N3CCN(C/C=C/c4ccccc4)CC3)c2)cc1 10 µM
CCOc1ccc(C2c3[nH]c4ccccc4c3CCN2C(=O)CSCc2ccc(F)cc2)cc1 (stereo unspecified) 2.82 µM

Potency, inconclusive:
Cc1cccc(NC(=O)Cn2cc(C(=O)c3ccco3)c3ccccc32)c1 10 µM [inhibitor, partial curve, poor fit]
CC(=O)c1ccc(N2CCN(C(=O)CCC(=O)Nc3ccc4nc(N5CCN(C)CC5)cc(C)c4c3)CC2)cc1 10 µM [inhibitor, partial curve, poor fit]
CCOc1[nH]n(-c2ccccc2)c(=O)c1C=Nc1ccccc1 11.2 µM [inhibitor, single point]
CN(CC(=O)Nc1ccc(S(=O)(=O)N2CCCC2)cc1)Cc1ccc(Cl)cc1 12.6 µM [inhibitor, single point]
CN(C)c1ccc(-c2ccnc3c2CC(C)(C(=O)NCc2cccc(Cl)c2)O3)cc1 (stereo unspecified) 28.2 µM [inhibitor, single point]
CC(C)C1Oc2ccccc2N(CC(=O)N(C)C2CCCCC2)C1=O (stereo unspecified) 10 µM [inhibitor, partial curve, poor fit]
CCN(CC)c1ccc(CNc2ccc3c(c2)ncn3C(C)(C)C)cc1 7.08 µM [inhibitor, partial curve, poor fit]
CCn1c(CN2CCC(C)CC2)nc2cc(NC(=O)COc3ccc(Cl)c(C)c3)ccc21 0.631 µM [inhibitor, full curve, poor fit]
CCOC(=O)C(C(C)=O)C(c1ccc(OCCC(C)C)cc1)C(C(C)=O)C(=O)OCC (stereo unspecified) 2.51 µM [inhibitor, single point]
CCc1ccc(-n2c(SCc3ccccc3Cl)nc3[nH]ncc3c2=O)cc1 11.2 µM [inhibitor, partial curve, poor fit]
COc1ccc(-c2nc(CSCC(=O)NCCc3ccccc3)c(C)o2)cc1 15.8 µM [inhibitor, single point]
CCCOC(=O)c1ccc(Nc2nc(C)cc(=O)[nH]2)cc1 10 µM [inhibitor, single point]
CCN(Cc1ccccc1)C(=O)c1ccc(SC)cc1OC 28.2 µM [inhibitor, single point]
COc1ccc(CNC(=O)Nc2ccc3c(c2)N(C)C(=O)c2ccccc2S3)cc1OC 5.62 µM [inhibitor, partial curve, poor fit]
Cc1ccc(OC(C)C(=O)Nc2ccc(S(=O)(=O)N3CCOCC3)cc2)cc1 (stereo unspecified) 17.8 µM [inhibitor, single point]
CSc1ccc(C(O)c2ncc(-c3ccc(F)cc3)[nH]2)cc1 (stereo unspecified) 7.94 µM [inhibitor, single point]
O=S(=O)(Nc1cnc2ccccc2c1)N1CCCCCC1 7.94 µM [inhibitor, partial curve, poor fit]
O=C(O)c1ccc(N/N=C/c2ccc3ncccc3c2)cc1 2.24 µM [inhibitor, full curve]
CC(C(=O)NCc1ccc(F)cc1)c1ccc([N+](=O)[O-])cc1 (stereo unspecified) 14.1 µM [inhibitor, single point]
Cc1cc(N2CCN(C)CC2)nc2ccc(NC(=S)NCCCN3CCc4ccccc4C3)cc12 2.51 µM [inhibitor, full curve]
CCc1cc(=O)oc2c3c(cc(OCC(=O)NCc4cccnc4)c12)OC(C)(C)CC3 10 µM [inhibitor, single point]
Nc1ccccc1OCCOCCOc1ccccc1N 31.6 µM [inhibitor, single point]
O=[N+]([O-])c1ccc(O)c(Nc2ncnc3ccc(Br)cc23)c1 28.2 µM [inhibitor, single point]
CCC1=C(OC(=O)N(CC)CC)N2C(=O)OC(=NCCc3c[nH]c4ccccc34)[C@]2(Cc2ccccc2)[C@H]2C1=CC[C@H]1C(=O)N(CC)C(=O)[C@H]12 28.2 µM [inhibitor, single point]
CCS(=O)(=O)c1ccc(O)c(NC(=O)Nc2ccc(C(C)(C)C)cc2)c1 10 µM [inhibitor, partial curve, poor fit]
Cc1ccc(Cl)cc1N1CCN(C(=O)CNC(=O)c2ccc(Br)o2)CC1 14.1 µM [inhibitor, single point]
Cc1cccc(NC(=O)C(C)SCc2ccccc2)c1 (stereo unspecified) 15.8 µM [inhibitor, single point]
CCN(CC)CCNC(=O)c1ccc2c(=O)n(CCc3ccccc3)c(=O)[nH]c2c1 6.31 µM [inhibitor, partial curve, poor fit]
CCCNC(=O)NCCC12CC3CC(CC(C3)C1)C2 10 µM [inhibitor, partial curve, poor fit]
C=CCN1C(=O)c2ccccc2NC1c1cc(Br)cs1 (stereo unspecified) 12.6 µM [inhibitor, single point]
O=[N+]([O-])c1ccc(N=Nc2ccc(O)cc2O)cc1 10 µM [inhibitor, single point]
Cc1cccc(NC(=O)COc2ccc(-c3nn(C)c(=O)c4ccccc34)cc2)c1 31.6 µM [inhibitor, partial curve, poor fit]
CC(=O)Oc1ccc2occ(-c3ccccc3)c2c1 14.1 µM [inhibitor, partial curve, poor fit]
Cc1cccc(C(=O)Nc2cccc(S(=O)(=O)NCc3ccco3)c2)c1 28.2 µM [inhibitor, single point]
CC12CCC(C(=O)Nc3ccc(SC(F)F)cc3)(CC1=O)C2(C)C (stereo unspecified) 11.2 µM [inhibitor, partial curve, poor fit]
COc1cccc(NC(=O)CN(C)C(C)C(=O)NC(C)c2ccc(Cl)cc2Cl)c1 (stereo unspecified) 11.2 µM [inhibitor, single point]
Cc1ccsc1S(=O)(=O)N1CCC(CO)(CC2CCCCO2)CC1 (stereo unspecified) 0.316 µM [inhibitor, full curve, poor fit]
Cc1cccc2c1-c1sc(C(=O)NCCCN3CCCC(C)C3)cc1CO2 (stereo unspecified) 10 µM [inhibitor, partial curve, poor fit]
CCN(CC(=O)Nc1ccc([N+](=O)[O-])cc1OC)CC(=O)NC(C)(C)C 31.6 µM [inhibitor, single point]
Cc1cccc(CNC(=O)c2ccc3nc(Cc4ccccc4)oc3c2)c1 28.2 µM [inhibitor, single point]
O=C(NC(c1ccc(Cl)cc1)c1ccsc1)C1CCN(Cc2cccc(C(F)(F)F)c2)CC1 (stereo unspecified) 11.2 µM [inhibitor, partial curve, poor fit]
CCCCCCCCCCC[N+](C)(C)CC/C=C1/c2ccccc2Sc2ccc(Cl)cc21 22.4 µM [inhibitor, single point]
Cc1ccc(S(=O)(=O)N(Cc2ccccc2)C(C)C)cc1 28.2 µM [inhibitor, single point]
CCOC(=O)c1cnc2c(ccc3ccccc32)c1NCCCN(C)C 22.4 µM [inhibitor, single point]
Cn1c(=O)c2c(nc(N3CCN(Cc4ccccc4)CC3)n2CCCc2ccccc2)n(C)c1=O 28.2 µM [inhibitor, single point]

Activity change, negative = inhibition, inconclusive:
C=C(C)CSc1nc2sc3c(c2c(=O)n1-c1ccc(C)cc1)CCN(C)C3 -58% [inhibitor]

Activity change, negative = inhibition, inactive:
Cc1ccc(C2=NC(=O)/C(=C/c3cc(O)c(O)c(Br)c3)S2)cc1 6.63%
COc1ccc(-c2oc3ncn(CCN4CCOCC4)c(=N)c3c2-c2ccc(OC)cc2)cc1 -9.85%
O=C1c2ccccc2C(=O)N1CSc1nnc(Nc2ccccc2F)s1 0%
COc1cc(OC)c(NC(=O)CCc2c(C)nc3ncnn3c2C)cc1Cl -0.667%
CN(Cc1ccccc1)c1ccc(-c2nc(-c3ccccn3)no2)cc1[N+](=O)[O-] 0.585%
c1ccc2c(CNn3cnnc3)cccc2c1 30.1%
CN1CCC(N2CCN(C3CN(Cc4ccccc4)S(=O)(=O)C3)CC2)CC1 (stereo unspecified) -12.2%
O=C1CCCC(O)=C1C1C2=C(CCCC2=O)OC2=C1C(=O)CCC2 -10.2% [at 7.66 µM]
CC/C(=N\NC(=O)c1ccc(-c2ccccc2)cc1)C12CC3CC(CC(C3)C1)C2 0.425%
CCOc1ccc(CCNC(=O)CCCc2nnc3n(CC)c(=O)c4sccc4n23)cc1OCC 9.15%
CC(C)(C)NC(=O)c1nn2c(C(F)(F)F)cc(-c3ccccc3)nc2c1Br 3.05%
COc1ccc(-c2ccc(SCC(=O)c3ccccc3)nn2)cc1OC 65.2%
CCC1CCCCN1C(=O)CSc1nnc(-c2ccco2)o1 (stereo unspecified) 5.52%
CCCc1cc(C(=O)OC)c(NC(=O)CCCC(=O)O)s1 55%
CCC(C(=O)N(C(C)C)C(C)C)c1ccccc1 (stereo unspecified) 17.5%
O=C(NCCc1ccccc1)c1nn(-c2ccc(F)cc2)nc1CO 10.5%
CCC(Oc1ccccc1)C(=O)N(C)CC(=O)N(CC(C)C)c1c(N)n(CC(C)C)c(=O)[nH]c1=O (stereo unspecified) -3.42%
Cn1cccc1/C=N/NC(=O)CSc1nc2ccccc2n1C 3.66%
